# B1: P1229 (hActRIIB L33W, 14 aa linker, IgG1-DL) (Fc fusion)
# chain: ETRECIYYNANWELERTNQSGLERCEGEQDKRWHCYASWRNSSGTIELVKKGCWLDDFNCYDRQECVATEENPQVYFCCCEGNFCNERFTHLPEAGGPEVTYEPPPTGGGGSGGGGSGG[human IgG1 Fc and a few adjoining residues left out]
# B2: P1373 (hActRIIB L33W, 19 aa linker, IgG1-DL) (Fc fusion)
# chain: ETRECIYYNANWELERTNQSGLERCEGEQDKRWHCYASWRNSSGTIELVKKGCWLDDFNCYDRQECVATEENPQVYFCCCEGNFCNERFTHLPEAGGPEVTYEPPPTGGGGSGGGGSGGGGSGG[human IgG1 Fc and a few adjoining residues left out]
# B3: P751 (hActRIIB L33Y, 14 aa linker, IgG1-DL) (Fc fusion)
# chain: ETRECIYYNANWELERTNQSGLERCEGEQDKRYHCYASWRNSSGTIELVKKGCWLDDFNCYDRQECVATEENPQVYFCCCEGNFCNERFTHLPEAGGPEVTYEPPPTGGGGSGGGGSGG[human IgG1 Fc and a few adjoining residues left out]
# B4: P750 (hActRIIB L33R, 14 aa linker, IgG1-DL) (Fc fusion)
# chain: ETRECIYYNANWELERTNQSGLERCEGEQDKRRHCYASWRNSSGTIELVKKGCWLDDFNCYDRQECVATEENPQVYFCCCEGNFCNERFTHLPEAGGPEVTYEPPPTGGGGSGGGGSGG[human IgG1 Fc and a few adjoining residues left out]
# B5: P1182 (hActRIIB L33Y G27D, 14 aa linker, IgG1-DL) (Fc fusion)
# chain: ETRECIYYNANWELERTNQSGLERCEDEQDKRYHCYASWRNSSGTIELVKKGCWLDDFNCYDRQECVATEENPQVYFCCCEGNFCNERFTHLPEAGGPEVTYEPPPTGGGGSGGGGSGG[human IgG1 Fc and a few adjoining residues left out]
# B6: P1185 (hActRIIB L33Y G27E, 14 aa linker, IgG1-DL) (Fc fusion)
# chain: ETRECIYYNANWELERTNQSGLERCEEEQDKRYHCYASWRNSSGTIELVKKGCWLDDFNCYDRQECVATEENPQVYFCCCEGNFCNERFTHLPEAGGPEVTYEPPPTGGGGSGGGGSGG[human IgG1 Fc and a few adjoining residues left out]
# B7: P75 (wild type human ActRIIB-ECD-Fc) (Fc fusion)
# chain: ETRECIYYNANWELERTNQSGLERCEGEQDKRLHCYASWRNSSGTIELVKKGCWLDDFNCYDRQECVATEENPQVYFCCCEGNFCNERFTHLPEAGGPEVTYEPPPTG[human IgG1 Fc and a few adjoining residues left out]
# B8: P1374 (hActRIIB L33W, 19 aa linker, IgG1 Y-DL) (Fc fusion)
# chain: ETRECIYYNANWELERTNQSGLERCEGEQDKRWHCYASWRNSSGTIELVKKGCWLDDFNCYDRQECVATEENPQVYFCCCEGNFCNERFTHLPEAGGPEVTYEPPPTGGGGSGGGGSGGGGSGGGG[human IgG1 Fc with changes left out]
# B9: P1389 (hActRIIB G27T, L33W, 19 aa linker, IgG1-DL) (Fc fusion)
# chain: ETRECIYYNANWELERTNQSGLERCETEQDKRWHCYASWRNSSGTIELVKKGCWLDDFNCYDRQECVATEENPQVYFCCCEGNFCNERFTHLPEAGGPEVTYEPPPTGGGGSGGGGSGGGGSGG[human IgG1 Fc and a few adjoining residues left out]
# B10: P1409 (hActRIIB L14Q, L33W, 19 aa linker, IgG1-DL) (Fc fusion)
# chain: ETRECIYYNANWEQERTNQSGLERCEGEQDKRWHCYASWRNSSGTIELVKKGCWLDDFNCYDRQECVATEENPQVYFCCCEGNFCNERFTHLPEAGGPEVTYEPPPTGGGGSGGGGSGGGGSGG[human IgG1 Fc and a few adjoining residues left out]
# B11: P1406 (hActRIIB L14E, L33W, 19 aa linker, IgG1-DL) (Fc fusion)
# chain: ETRECIYYNANWEEERTNQSGLERCEGEQDKRWHCYASWRNSSGTIELVKKGCWLDDFNCYDRQECVATEENPQVYFCCCEGNFCNERFTHLPEAGGPEVTYEPPPTGGGGSGGGGSGGGGSGG[human IgG1 Fc and a few adjoining residues left out]
# B12: P1371 (hActRIIB L33W, 14 aa linker, IgG1 Y-DL) (Fc fusion)
# chain: ETRECIYYNANWELERTNQSGLERCEGEQDKRWHCYASWRNSSGTIELVKKGCWLDDFNCYDRQECVATEENPQVYFCCCEGNFCNERFTHLPEAGGPEVTYEPPPTGGGGSGGGGSGGGG[human IgG1 Fc with changes left out]
# Molecular target: T1, BMP-9 (UniProt Q9UK05 320-429)
# T1 sequence (looked up): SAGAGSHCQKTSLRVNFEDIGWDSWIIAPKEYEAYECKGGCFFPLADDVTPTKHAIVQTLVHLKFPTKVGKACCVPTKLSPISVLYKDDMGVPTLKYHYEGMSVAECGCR
# Assay: cell-based or functional assay
row,Binder,fold lower BMP-9 neutralization potency than P75
1,B1,> 100 fold
2,B2,> 100 fold

# Molecular target: T2, activin A (human, UniProt P08476 311-426)
# T2 sequence (looked up): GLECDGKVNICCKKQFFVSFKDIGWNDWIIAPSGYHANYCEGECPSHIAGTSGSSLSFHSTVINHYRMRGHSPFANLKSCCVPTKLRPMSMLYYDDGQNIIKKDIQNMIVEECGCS
# Assay: cell-based or functional assay
row,Binder,"IC50, TGFβ-reporter HEK293 cell-based neutralization assay"
1,B3,0.82 nM
2,B4,0.76 nM
3,B5,0.85 nM
4,B6,1 nM
5,B1,0.7 nM
6,B7,2.3 nM
7,B2,0.53 nM
8,B8,0.53 nM
9,B9,0.52 nM
10,B10,0.55 nM
11,B11,1.7 nM
12,B12,0.56 nM

# Molecular target: T3, activin B (UniProt P09529 293-407)
# T3 sequence (looked up): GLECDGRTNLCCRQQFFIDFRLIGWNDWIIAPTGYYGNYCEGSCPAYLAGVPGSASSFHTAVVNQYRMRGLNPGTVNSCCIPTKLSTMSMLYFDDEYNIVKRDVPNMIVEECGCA
# Assay: cell-based or functional assay
row,Binder,"IC50, TGFβ-reporter HEK293 cell-based neutralization assay"
1,B3,0.8 nM
2,B4,1 nM
3,B5,7.7 nM
4,B6,5.2 nM
5,B1,1.8 nM
6,B7,1.4 nM
7,B2,2.9 nM
8,B8,1.9 nM
9,B9,1 nM
10,B10,1.9 nM
11,B11,> 20 nM
12,B12,2.7 nM

# Molecular target: T4, GDF-8 (UniProt O14793 267-375)
# T4 sequence (looked up): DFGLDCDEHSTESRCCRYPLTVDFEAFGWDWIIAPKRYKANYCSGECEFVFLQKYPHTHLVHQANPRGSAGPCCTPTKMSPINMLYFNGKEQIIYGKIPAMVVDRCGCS
# Assay: cell-based or functional assay
row,Binder,"IC50, TGFβ-reporter HEK293 cell-based neutralization assay"
1,B3,0.3 nM
2,B4,0.58 nM
3,B5,0.37 nM
4,B6,0.33 nM
5,B1,0.33 nM
6,B7,0.67 nM
7,B2,0.4 nM
8,B8,0.37 nM
9,B9,0.4 nM
10,B10,0.48 nM
11,B11,0.33 nM
12,B12,0.23 nM

# Molecular target: T5, GDF-11 (UniProt O95390 299-407)
# T5 sequence (looked up): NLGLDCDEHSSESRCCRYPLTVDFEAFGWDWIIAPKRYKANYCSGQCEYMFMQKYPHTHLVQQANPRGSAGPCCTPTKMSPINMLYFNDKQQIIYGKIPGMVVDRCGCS
# Assay: cell-based or functional assay
row,Binder,"IC50, TGFβ-reporter HEK293 cell-based neutralization assay"
1,B3,0.25 nM
2,B4,0.51 nM
3,B5,0.46 nM
4,B6,0.44 nM
5,B1,0.39 nM
6,B7,0.75 nM
7,B2,0.46 nM
8,B8,0.4 nM
9,B9,0.39 nM
10,B10,0.39 nM
11,B11,0.37 nM
12,B12,0.6 nM

# Molecular target: T1, BMP-9
# Assay: cell-based or functional assay
# Remark: another data set of the same source
row,Binder,"IC50, BMP-reporter HepG2 cell-based neutralization assay"
1,B3,18 nM
2,B4,21 nM
3,B5,265 nM
4,B6,791 nM
5,B1,> 1000 nM
6,B7,3 nM
7,B2,> 1000 nM
8,B9,> 100 nM
9,B10,> 1000 nM
10,B11,> 1000 nM

# Molecular target: T6, BMP-10 (UniProt O95393 317-424)
# T6 sequence (looked up): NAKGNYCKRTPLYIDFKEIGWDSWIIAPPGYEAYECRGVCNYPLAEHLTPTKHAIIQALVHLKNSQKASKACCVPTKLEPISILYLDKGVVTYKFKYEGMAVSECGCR
# Assay: cell-based or functional assay
row,Binder,"IC50, BMP-reporter HepG2 cell-based neutralization assay"
1,B3,2.4 nM
2,B4,4.7 nM
3,B5,2.4 nM
4,B6,2.3 nM
5,B1,> 100 nM
6,B7,2 nM
7,B2,> 100 nM
8,B9,> 100 nM
9,B10,> 100 nM
10,B11,> 100 nM

# — patent US20260092096A1 (35PHARMA, published 2026)
